Out of some 200,000 compounds screened, about 10 (0.005%) were called active. The shares of active, inactive and inconclusive entries below differ from those in the screen. Calls come from the whole dose curve; as a rule, active = well fitted inhibition curve with a large enough effect; inconclusive = small, poorly fitted or top-dose-only effect, or effect the other way, or another doubt; inactive = no such curve, though single readings can be large or run the other way. Potencies of inconclusive entries are left out as doubtful fits.
What follows are molecules tested against Lysosomal alpha-glucosidase (Homo sapiens) (UniProt P10253) (assay: qHTS Assay for Inhibitors of Human alpha-Glucosidase as a Potential Chaperone Treatment of Pompe Disease). Details: purified human GAA, 4-MU-alpha-glucoside fluorescence; activity change, negative = inhibition: at 76.9 µM (top of the series) unless noted.
In short: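 Endpoint fluorogenic read: 20 min room-temperature reaction of 4 nM human alpha-glucosidase with 400 uM 4-methylumbelliferyl-alpha-D-pyranoside, pH 5.0, quenched with 1M NaOH/1M glycine pH 10. AC50 from Hill modeling.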
Cn1c(SCC(=O)N2c3ccccc3CCc3ccccc32)nnc1-c1cc2ccccc2cc1O was tested, and the Potency was inconclusive [inhibitor, partial curve, poor fit]. CN(C)S(=O)(=O)N(CC(=O)N(Cc1ccccc1)Cc1ccccc1)c1ccccc1 was tested, and the activity change, negative = inhibition was inconclusive: -17.9% [inhibitor]. With Cc1cc(-c2ccc(C(=O)O)s2)cnc1N the Potency was inconclusive [activator, partial curve]. With Cc1ccc(NC(=O)[C@@H]2CCCN2S(=O)(=O)c2ccccc2C(F)(F)F)cc1S(=O)(=O)N1CCOCC1 the Potency was inconclusive [inhibitor, partial curve]. With C=CCN1CN(CCc2ccccc2)CNC1=S the Potency was inconclusive [inhibitor, single point]. In the case of CC1=C(CC(=O)c2ccc(Cl)cc2)C(=O)c2ccccc2C1=O, the activity change, negative = inhibition is reported as inconclusive: 12.7% [activator]. With OC1CN=C2C=CC=CN2C1 (centres undefined) the activity change, negative = inhibition was inconclusive: -17.4% [inhibitor]. In the case of CCN(CC)C(=O)CSc1nc(N)c2c3c(sc2n1)CC(C)CC3 (centres undefined), the Potency is reported as inconclusive [inhibitor, single point]. In the case of O=C(O)C(Cc1ccccc1)N1C(=O)c2cccc3cccc(c23)C1=O (centres undefined), the activity change, negative = inhibition is reported as inconclusive: 16% [activator]. In the case of CCOc1ccc(NC(=O)CNC(=O)c2cn(-c3ccccc3OC)c(=O)c3ccccc23)cc1, the Potency is reported as “inactive”. With Cc1ccc(C2(C)NC(=O)N(CC(=O)NC(=O)NCCC(C)C)C2=O)cc1 (centres undefined) the Potency was inconclusive [inhibitor, partial curve, poor fit]. Cc1cc(Nc2cccc([N+](=O)[O-])c2)n2c(nc3ccccc32)c1C#N was tested, and the Potency was inconclusive [inhibitor, single point]. In the case of COc1ccc(OC)c(/C=N/NC(=O)c2cc(-c3ccc(C)o3)nc3ccccc23)c1, the Potency is reported as inconclusive [activator, single point]. With O=c1c2ccccc2[nH]c2ccc(F)cc12 the Potency was inconclusive [activator, partial curve]. In the case of COc1ccc(C(O)c2nc3ccccc3s2)cc1 (centres undefined), the Potency is reported as inconclusive [inhibitor, single point]. N#Cc1ccc(COC(=O)c2ccc(N3CCCC3)c([N+](=O)[O-])c2)cc1 was tested, and the Potency was inconclusive [inhibitor, single point]. Cc1cc2cc(C)c(SCC(=O)NCc3ccco3)nc2cc1C was tested, and the Potency was inconclusive [inhibitor, single point]. In the case of Cc1cccc2cc(-c3nc4c(C)cccn4c3NCc3ccco3)c(=O)[nH]c12, the Potency is reported as “inactive”. For O=C1NCCCC1C(=O)N/N=C/c1ccccc1O (centres undefined), the Potency was inconclusive [activator, partial curve]. With CC(=O)Nc1ccc(S(=O)(=O)N2CCC(NC(C)=O)(c3cccc(F)c3)CC2)cc1 the activity change, negative = inhibition was inconclusive: -16.4% [inhibitor]. NS(=O)(=O)c1ccc(NC(=S)NC(=O)/C=C/c2ccco2)cc1 was tested, and the Potency was inconclusive [activator, single point]. For Clc1ccc(N/N=C/c2cccnc2)cc1, the Potency was inconclusive [inhibitor, single point]. c1ccc2c(N3CCOCC3)nc(N3CCOCC3)nc2c1 was tested, and the Potency was inconclusive [activator, partial curve]. For CC(Nc1nc(N2CCN(S(C)(=O)=O)CC2)nc2ccccc12)c1ccccc1 (centres undefined), the Potency was inconclusive [activator, single point]. For Cc1cc(-c2nc3cccnc3s2)ccc1NS(=O)(=O)c1ccc2c(c1)OCCO2, the Potency was inconclusive [activator, partial curve]. For Cc1ccc(S(=O)(=O)N2CCN(S(=O)(=O)N(C)C)CC2)c(C)c1, the Potency was inconclusive [inhibitor, partial curve]. In the case of COc1cccc(/C(O)=C2\C(=O)C(=O)N(c3ccccn3)C2c2cccc(OC)c2OC)c1 (centres undefined), the activity change, negative = inhibition is reported as inconclusive: -18% [inhibitor]. COc1ccc(-c2ccc(CCC(=O)O)n2C(C)C)cc1 was tested, and the Potency was inconclusive [activator, single point]. With CC1CCN(CCCCOc2cccc(Br)c2)CC1 the activity change, negative = inhibition was inconclusive: -15.9% [inhibitor]. With COc1ccc(C(=O)N(CC2CCCO2)C(C(=O)NC2CCCC2)c2ccc(C)cc2)cc1OC (centres undefined) the activity change, negative = inhibition was inconclusive: -17.1% [inhibitor]. For COc1ccccc1NS(=O)(=O)c1cc(C(=O)NCCN2CCOCC2)ccc1Cl, the Potency was inconclusive [activator, single point]. CCC1CCCCN1C(=O)CSc1nc(N)cc(N)n1 (centres undefined) was tested, and the activity change, negative = inhibition was inconclusive: 15.2% [activator]. O=C(CSc1ncn[nH]1)Nc1ccccc1C(=O)O was tested, and the activity change, negative = inhibition was inconclusive: -18.9% [inhibitor]. With CN/S(=N/S(=O)(=O)c1ccccc1)c1ccc(C)cc1 (centres undefined) the Potency was “inactive”. In the case of COC(=O)c1cc(NC2c3ccccc3C(=O)N2c2cccnc2)cc(C(=O)OC)c1 (centres undefined), the Potency is reported as inconclusive [inhibitor, single point]. In the case of Cc1ccc(/C=C2/NC(=O)N(Cc3ccccc3F)C2=O)o1, the Potency is reported as “inactive”. For O=C(C1CCN(S(=O)(=O)c2ccccc2F)CC1)N1CCc2ccccc2C1, the Potency was inconclusive [inhibitor, single point]. Cc1cc(NC(=O)CN2CCN(c3ccccc3O)CC2)no1 was tested, and the Potency was “inactive”. With CCn1cc(-c2cc(C(=O)O)on2)c(C)n1 the Potency was inconclusive [inhibitor, partial curve]. In the case of CC(=O)Nc1ccc2c(c1)N(C(C)=O)c1ccccc1CC2, the activity change, negative = inhibition is reported as inconclusive: 20.2% [activator]. With CCOc1ccc(-c2nnc(N(CC)C(=O)C3CCC3)s2)cc1 the activity change, negative = inhibition was inconclusive: -17.4% [inhibitor]. With CN1CCN(S(=O)(=O)c2cccc(C(=O)Nc3sc4c(c3-c3nc5ccccc5[nH]3)CCCC4)c2)CC1 the Potency was “inactive”. With CCCn1nnnc1SCC(=O)NNC(=O)c1ccco1 the Potency was inconclusive [inhibitor, full curve]. For O=C(N/N=C(\c1ccccc1)c1cccnc1)C(O)(c1ccccc1)c1ccccc1, the Potency was inconclusive [inhibitor, partial curve].
Potency is the fitted concentration of half-maximal effect; tags give direction and shape of the fitted curve.
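Throughout, for activity change, negative = inhibition: plate controls were uninhibited enzyme wells for no effect and no-enzyme background for full effect.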
